Bacterial growth in Mueller-Hinton broth at 37 °C with the drug at the dose given, alone or with nitroxoline. Checkerboards on E. coli BW25113: OD600 at the end of exponential growth as a fraction of no-drug wells. Colistin series: OD595 at 10.75 h as a fraction of the colistin-free well. 1 = full growth, lower = more inhibition. No active / inactive call per well. Checkerboard doses stop near each drug's IC75, and their values pile up at 1, as if capped there. Colistin and gentamicin are mixtures; one drawing stands for each.
Test system: Escherichia coli BW25113
Assay: growth relative to no-drug wells (fraction of no-drug control); higher = more growth, less inhibition
Protocol: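 8 x 8 checkerboard in cation-adjusted Mueller-Hinton broth at 37 °C; OD600 at the end of exponential growth as a fraction of no-drug wells, two biological replicates.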

CO/N=C(\C(=O)N[C@@H]1C(=O)N2C(C(=O)[O-])=C(C[N+]3(C)CCCC3)CS[C@H]12)c1csc(N)n1 [Cefepime]
nitroxoline concentration 0 µg/ml
Conditions	growth
0.004 µg/ml	0.984
0.0075 µg/ml	0.96
0.011 µg/ml	0.969
0.0145 µg/ml	0.888
0.018 µg/ml	0.589
0.0215 µg/ml	0.484
0.025 µg/ml	0.135

C[C@H]1c2cccc(O)c2C(=O)C2=C(O)[C@]3(O)C(=O)C(C(N)=O)=C(O)[C@@H](N(C)C)[C@@H]3[C@@H](O)[C@@H]21 [Doxycycline] + Oc1ccc([N+](=O)[O-])c2cccnc12 [nitroxoline]
growth
Conditions	nitroxoline concentration 0.136 µg/ml	nitroxoline concentration 0.255 µg/ml	nitroxoline concentration 0.374 µg/ml	nitroxoline concentration 0.493 µg/ml	nitroxoline concentration 0.612 µg/ml	nitroxoline concentration 0.731 µg/ml	nitroxoline concentration 1.1 µg/ml
0.065 µg/ml	0.975	0.867	0.8647	0.655	0.614	0.256	0.109
0.1125 µg/ml	0.872	0.984	0.9935	0.619	0.561	0.27	0.148
0.13 µg/ml	0.892	0.745	0.829	0.6	0.59	0.276	0.172
0.225 µg/ml	0.645	0.607	0.625	0.482	0.333	0.173	0.0998
0.26 µg/ml	0.0141	0.0132	0.0202	0.0132	0.0299	0.0299	0.0281
0.45 µg/ml	0.0733	0.0429	0.0464	0.0517	0.0519	0.0498	0.0368
0.52 µg/ml	0.0495	0.0462	0.0397	0.0483	0.0365	0.0283	0.0289

CO[C@@H]1[C@@H](OC(N)=O)[C@@H](O)[C@H](Oc2ccc3c(O)c(NC(=O)c4ccc(O)c(CC=C(C)C)c4)c(=O)oc3c2C)OC1(C)C [Novobiocin] + Oc1ccc([N+](=O)[O-])c2cccnc12 [nitroxoline]
growth
Conditions	nitroxoline concentration 0.136 µg/ml	nitroxoline concentration 0.255 µg/ml	nitroxoline concentration 0.374 µg/ml	nitroxoline concentration 0.493 µg/ml	nitroxoline concentration 0.612 µg/ml	nitroxoline concentration 0.731 µg/ml	nitroxoline concentration 0.75 µg/ml
3.9916 µg/ml	0.962	1	1	0.973	0.874	0.747	0.64571
7.493 µg/ml	0.981	0.975	0.965	0.666	0.859	0.6619	0.686
10.9944 µg/ml	0.9937	0.932	0.72	0.69	0.691	0.656	0.562
14.4958 µg/ml	0.957	0.961	0.677	0.709	0.691	0.565	0.537
17.9972 µg/ml	0.916	0.917	0.464	0.441	0.529	0.509	0.442
21.4986 µg/ml	0.976	0.714	0.4131	0.528	0.497	0.511	0.422
25 µg/ml	0.883	0.562	0.245	0.457	0.468	0.462	0.399

C[C@H]1[C@H](NC(=O)/C(=N\OC(C)(C)C(=O)O)c2csc(N)n2)C(=O)N1S(=O)(=O)O [Aztreonam]
nitroxoline concentration 0 µg/ml
Conditions	growth
0.008 µg/ml	0.957
0.015 µg/ml	0.93
0.022 µg/ml	0.904
0.029 µg/ml	0.113
0.036 µg/ml	0.0147
0.043 µg/ml	0.0178
0.05 µg/ml	0.00857

C[C@@H](O)[C@H]1C(=O)N2C(C(=O)O)=C(S[C@@H]3CN[C@H](C(=O)N(C)C)C3)[C@H](C)[C@H]12 [Meropenem] + Oc1ccc([N+](=O)[O-])c2cccnc12 [nitroxoline]
growth
Conditions	nitroxoline concentration 0.136 µg/ml	nitroxoline concentration 0.255 µg/ml	nitroxoline concentration 0.374 µg/ml	nitroxoline concentration 0.493 µg/ml	nitroxoline concentration 0.612 µg/ml	nitroxoline concentration 0.731 µg/ml	nitroxoline concentration 0.85 µg/ml
0.0562 µg/ml	0.85	0.816	0.785	0.648	0.581	0.497	0.453
0.0968 µg/ml	0.822	0.813	0.736	0.6043	0.534	0.513	0.502
0.1125 µg/ml	0.761	0.731	0.6707	0.61	0.551	0.514	0.489
0.1935 µg/ml	0.675	0.6282	0.657	0.576	0.513	0.467	0.433
0.225 µg/ml	0.551	0.591	0.615	0.533	0.527	0.475	0.448
0.387 µg/ml	0.16	0.27	0.295	0.331	0.342	0.345	0.297
0.45 µg/ml	0.0412	0.114	0.213	0.241	0.232	0.2833	0.246

NC[C@H]1O[C@H](O[C@H]2[C@H](O)[C@@H](O[C@H]3O[C@H](CO)[C@@H](O)[C@H](N)[C@H]3O)[C@H](N)C[C@@H]2N)[C@H](N)C[C@@H]1O [Tobramycin]
nitroxoline concentration 0 µg/ml
Conditions	growth
0.0187 µg/ml	0.917
0.0325 µg/ml	0.968
0.0375 µg/ml	0.9483
0.065 µg/ml	0.845
0.075 µg/ml	0.808
0.13 µg/ml	0.706
0.15 µg/ml	0.641

CC[C@H]1OC(=O)[C@H](C)[C@@H](O[C@H]2C[C@@](C)(OC)[C@@H](O)[C@H](C)O2)[C@H](C)[C@@H](O[C@@H]2O[C@H](C)C[C@H](N(C)C)[C@H]2O)[C@](C)(O)C[C@@H](C)CN(C)[C@H](C)[C@@H](O)[C@]1(C)O [Azithromycin] + Oc1ccc([N+](=O)[O-])c2cccnc12 [nitroxoline]
growth
Conditions	nitroxoline concentration 0.12 µg/ml	nitroxoline concentration 0.225 µg/ml	nitroxoline concentration 0.33 µg/ml	nitroxoline concentration 0.435 µg/ml	nitroxoline concentration 0.54 µg/ml	nitroxoline concentration 0.645 µg/ml	nitroxoline concentration 0.75 µg/ml
0.0718 µg/ml	1	0.949	0.972	1	0.986	0.815	0.556
0.1349 µg/ml	0.982	0.848	0.9136	0.963	0.936	0.676	0.563
0.1979 µg/ml	0.883	0.875	0.877	0.767	0.798	0.534	0.461
0.2609 µg/ml	0.839	0.759	0.773	0.883	0.685	0.453	0.335
0.3239 µg/ml	0.802	0.791	0.67	0.742	0.643	0.312	0.233
0.387 µg/ml	0.731	0.64	0.694	0.619	0.63	0.216	0.129
0.45 µg/ml	0.6802	0.616	0.585	0.605	0.637	0.166	0.0931

C[C@@H](O)[C@H]1C(=O)N2C(C(=O)O)=C(SCCNC=N)C[C@H]12 [Imipenem]
nitroxoline concentration 0 µg/ml
Conditions	growth
0.025 µg/ml	0.77
0.043 µg/ml	0.741
0.05 µg/ml	0.827
0.086 µg/ml	0.629
0.1 µg/ml	0.491
0.172 µg/ml	0.172
0.2 µg/ml	0.181

CC(=O)Nc1c2sscc-2n(C)c1=O [Thiolutin]
nitroxoline concentration 0 µg/ml
Conditions	growth
0.0088 µg/ml	0.985
0.015 µg/ml	1
0.0175 µg/ml	1
0.03 µg/ml	0.948
0.035 µg/ml	0.926
0.06 µg/ml	0.874
0.07 µg/ml	0.939

CN(C)[C@@H]1C(O)=C(C(N)=O)C(=O)[C@@]2(O)C(O)=C3C(=O)c4c(O)cccc4[C@@](C)(O)[C@H]3C[C@@H]12 [Tetracycline]
nitroxoline concentration 0 µg/ml
Conditions	growth
0.0562 µg/ml	0.816
0.0975 µg/ml	0.686
0.1125 µg/ml	0.649
0.195 µg/ml	0.482
0.225 µg/ml	0.398
0.39 µg/ml	0.24
0.45 µg/ml	0.114

Oc1cccc2cccnc12 [8-Hydroxyquinoline]
nitroxoline concentration 0 µg/ml
Conditions	growth
0.125 µg/ml	0.93714
0.215 µg/ml	0.993
0.25 µg/ml	0.973
0.43 µg/ml	0.92
0.5 µg/ml	0.9318
0.86 µg/ml	0.896
1 µg/ml	0.859
